The whole screen tested about 1,600 compounds, of which about 55 (3%) were called active. Inconclusive means that the source gave no clear call. Such entries were picked first, then a sample of the others. Calls come from the whole dose curve; as a rule, active = well fitted inhibition curve with a large enough effect; inconclusive = small, poorly fitted or top-dose-only effect; inactive = no such curve, though single readings can be large or run the other way. Where the call is inconclusive, the potency comes from a doubtful curve fit.
Assay: qHTS for Inhibitors of TGF-b: Hit Validation in HepG2 Cells using COP promoter; note: nearly all actives have a fitted effect of over 70% in size;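 for activity, negative = inhibition: 0% = TGF-beta stimulated DMSO wells and -100% = unstimulated cell wells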
Details: HepG2 COP-GFP TGF-b reporter, GFP fluorescence, 18 h, cells stimulated by added recombinant TGF-beta; activity, negative = inhibition: at 46.1 µM (top of the series)
Method in brief: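 Inhibition values derive from cell-by-cell GFP fluorescence summed per well, normalized between unstimulated wells (full inhibition) and TGF-beta-stimulated DMSO wells (none). HepG2 COP-GFP cells received compound, then 500 pg/mL TGF-beta for 18 h.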
Potency is the fitted concentration of half-maximal effect; tags give direction and shape of the fitted curve.

activity, negative = inhibition, inactive:
COc1ccc(-c2onc(C)c2-c2ccc3c(c2)OCCO3)c(O)c1 42.4%
O=C(CN1CCN(C(=O)C2CCN(C(=O)/C=C/c3ccccc3)CC2)CC1)Nc1ccc(F)cc1 3.19%
CCOc1ccc(CN2CCN(C(=O)c3cccc4ccccc34)CC2)cc1 1.81%
O=C(c1ccc(Br)cc1)N(Cc1nc2ccccc2c(=O)[nH]1)C1CCCC1 19.4%
Cc1ccc(C)c(S(=O)(=O)Nc2ccccc2C(=O)Nc2cc(C)on2)c1 22.3%
Cc1ccc(NC(=S)NCc2ccccc2)cc1S(=O)(=O)N1CCCCC1 57.8%
O=C(Oc1c(CN2CCOCC2)cc(Cl)c2cccnc12)c1cccs1 14.4%
CC(C)(C)OC(=O)[C@H](Cc1ccccc1)NC(=O)c1[nH]cnc1C(=O)Nc1cccc(Cl)c1 30.1%
Cc1ccc2nc3c(c(Nc4ccc5c(c4)OCCO5)c2c1)CCC3 78.3%
CCc1nc(Nc2ccncc2)c2oc3ccccc3c2n1 21.8%
CC(=O)c1ccc(Nc2nc(-c3ccccc3)nc3ccccc23)cc1 -17.7%
Cc1ccc(Cl)cc1N1CCN(C(=S)NCc2ccco2)CC1 37.6%
COc1cc(/C=C(\C#N)c2nc3ccccc3[nH]2)cc(Br)c1OCc1ccccc1 21.6%
O=C(Nc1ccc([N+](=O)[O-])cc1)Nc1ccc(Cl)cc1F 26%
COc1ccccc1-n1cc([C@@H]2C[C@H]3CN(c4ccccc4)C(=O)[C@]34CCCN24)cn1 26.7%
Cc1ccc(Nc2nc(-c3cccnc3)nc3ccccc23)cc1 36%
CCC1Oc2ccc(C)cc2N(CC(=O)N(Cc2ccc(C)o2)C2CCCC2)C1=O (stereo not given) -2.47%
COc1ccc(-c2nc3ccc(Br)cn3c2Cc2cccc(Cl)c2)cc1OC 21.9%
COc1ccc2c(c1OC)C(=O)OC2Nc1nc(-c2ccc(-c3ccccc3)cc2)cs1 (stereo not given) -2.18%
C=CCNC(=S)N/N=C(\C)c1ccccn1 -3.72%
Clc1ccccc1Nc1nc(-c2ccncc2)nc2ccccc12 52.4%
COC(=O)c1ccc2nc(-c3ccco3)c(Cc3cccc(F)c3)n2c1 25%

Potency, inconclusive:
O=C(Nc1cccnc1)c1ccc([N+](=O)[O-])s1 29.1 µM [inhibitor, single point]
O=S(=O)(Nc1cc(Sc2ncn[nH]2)c(O)c2ccccc12)c1ccccc1 29.1 µM [inhibitor, single point]
CCC(=O)Nc1cccc(C(=O)/C=C/c2cc(Br)ccc2OC)c1 29.1 µM [inhibitor, single point]
COc1ccc2[nH]c3c(N4CCc5ccccc5C4)ncnc3c2c1 29.1 µM [inhibitor, single point]
CCOc1cc(/C=C2\COc3ccccc3C2=O)cc(Br)c1OCC(=O)N(C)C 29.1 µM [inhibitor, single point]
C=C(C)COc1ccc(-c2[nH]ncc2-c2ccc(OC)cc2)c(O)c1 29.1 µM [inhibitor, single point]
Oc1c(N=Nc2nn[nH]n2)ccc2ccccc12 29.1 µM [inhibitor, single point]
Cc1cccc(CS(=O)(=O)c2ncc(Cl)c(C(=O)NCc3ccc4c(c3)OCO4)n2)c1 29.1 µM [inhibitor, single point]
CN(C)CCC(=O)C(Cc1ccccc1)c1ccccc1 (stereo not given) 18.4 µM [inhibitor, single point]
CCN1CCN(c2ccc(S(=O)(=O)N3CCCCC3)cc2NC(=O)c2ccc([N+](=O)[O-])o2)CC1 29.1 µM [inhibitor, single point]
NC(c1csc(NC(=O)Nc2cccc(C(F)(F)F)c2)n1)C1CCCCC1 (stereo not given) 29.1 µM [inhibitor, single point]
Cc1cccc(CS(=O)(=O)c2ncc(Cl)c(C(=O)Nc3ccc(F)cc3)n2)c1 29.1 µM [inhibitor, single point]
O=S(=O)(CC(CN1CCCCC1)N1CCCCC1)c1ccccc1 (stereo not given) 29.1 µM [inhibitor, single point]
COc1ccc(-c2cc(N)n(S(=O)(=O)c3c(F)c(F)c(F)c(F)c3F)n2)cc1OC 29.1 µM [inhibitor, single point]
O=C(/C=C/c1ccccc1)CCN1CCOCC1 29.1 µM [inhibitor, single point]
O=C(NC1CCCC(C(F)(F)F)C1)c1ccc([N+](=O)[O-])o1 (stereo not given) 29.1 µM [inhibitor, single point]
Cc1ccc(S(=O)(=O)/N=C2\C=C(Nc3ccc(O)cc3)C(=O)c3ccccc32)cc1 4.11 µM [inhibitor, full curve, poor fit]
Cc1ccc(NC(=O)c2nc[nH]c2C(=O)NCCCNC(=O)c2[nH]cnc2C(=O)Nc2ccc(C)cc2)cc1 20.6 µM [inhibitor, single point]
CCCCCCN1C[C@H](n2cc(-c3ccc(F)cc3)nn2)[C@@H](O)C[C@@H]1c1ccc(Cl)cc1 29.1 µM [inhibitor, single point]
O=C(NC(c1ccccc1)c1ccc2ccccc2n1)C1CCN(CCOc2ccc(Cl)cc2)CC1 (stereo not given) 6.51 µM [inhibitor, single point]
CCOc1cc(/C=C\[N+](=O)[O-])ccc1OCC(=O)Nc1ccccc1C 25.9 µM [inhibitor, single point]
O=C(Nc1ccc(F)cc1)c1nc(S(=O)(=O)Cc2ccccc2)ncc1Cl 32.6 µM [inhibitor, single point]
O=C1C=CC2(C=C1)O[C@H](Cc1ccccc1)[C@@H](Cc1ccccc1)O2 29.1 µM [inhibitor, single point]
Cc1cccc(CS(=O)(=O)c2ncc(Cl)c(C(=O)Nc3c(C)cccc3C)n2)c1 29.1 µM [inhibitor, single point]
CN(C)c1ccc(NC2=C(Cl)C(=O)c3ccccc3C2=O)cc1 10.3 µM [inhibitor, single point]
Cc1nnc(Sc2cc(NCCCO)c([N+](=O)[O-])c3nonc23)s1 25.9 µM [inhibitor, single point]
Cc1cccc2sc(N(CCCN(C)C)C(=O)CCS(=O)(=O)c3ccccc3)nc12 29.1 µM [inhibitor, single point]
O=C(Nc1ccc(S(=O)(=O)N2CCOCC2)cc1)c1ccc([N+](=O)[O-])o1 29.1 µM [inhibitor, single point]
CC(C)(C)C(=O)/C(=C/c1ccncc1)n1cncn1 4.61 µM [inhibitor, single point]
COc1ccc(C(c2c(O)ccc3ccccc23)N2CCOCC2)c(OC)c1 (stereo not given) 18.4 µM [inhibitor, single point]
OC(CNCC(c1ccc(Cl)cc1Cl)c1c[nH]c2ccccc12)c1ccccc1 (stereo not given) 29.1 µM [inhibitor, single point]
COc1ccc(C2=NN(C(=O)COC(=O)c3ccc(S(C)(=O)=O)c([N+](=O)[O-])c3)C(c3ccco3)C2)cc1 (stereo not given) 29.1 µM [inhibitor, single point]
COc1ccc(N(C(=O)CCl)C(C(=O)NC2CCCCC2)c2cccnc2)cc1 (stereo not given) 29.1 µM [inhibitor, single point]
COc1ccc(S(=O)(=O)Nc2cc(Sc3ncn[nH]3)c(O)c3ccccc23)cc1 32.6 µM [inhibitor, single point]
O=C(/C=C/c1cccc([N+](=O)[O-])c1)c1ccc([N+](=O)[O-])o1 29.1 µM [inhibitor, single point]
O=c1c2ccccc2c(=O)n(Cc2ccccc2)n1Cc1ccccc1 6.51 µM [inhibitor, single point]
Oc1ccc(C[C@H]2CNC(=S)N2CC2CCCN2C[C@H](Cc2ccc(O)cc2)N2C[C@H](Cc3ccc(O)cc3)N(CC3CCCCC3)C2=S)cc1 (stereo not given in full) 29.1 µM [inhibitor, single point]

Potency, active:
O=[N+]([O-])c1c(Nc2cccc(O)c2)cc(Cl)c2nonc12 4.61 µM
COc1ccc(/C=C2/CCC(CN3CCOCC3)C2=O)cc1 (stereo not given) 16.4 µM
CCS(=O)(=O)c1ncc(Cl)c(C(=O)Nc2ccc(S(=O)(=O)N3CCCC(C)C3)cc2)n1 (stereo not given) 7.31 µM
CCC1CCCCN1S(=O)(=O)c1ccc(NC(=O)c2nc(S(C)(=O)=O)ncc2Cl)cc1 (stereo not given) 9.2 µM
COc1ccc(N(C(=O)CCl)C(C(=O)NCCc2ccccc2)c2cccs2)cc1Cl (stereo not given) 20.6 µM
CCCCCCCN(c1ccccc1)[C@@H]1C[C@H]2CCCC(=O)N3CC[C@@H](C1)[C@@H]23 20.6 µM
CCOC(=O)C1CCN(C(=O)c2c(C)oc3c2C(=O)c2ccccc2C3=O)CC1 5.8 µM
O=[N+]([O-])c1c(Nc2ccccn2)cc(Cl)c2nonc12 5.17 µM
O=[N+]([O-])c1ccc(S(=O)(=O)c2cccc(C(F)(F)F)c2)nc1 16.4 µM
CCOC(=O)c1c(C)oc2c1C(=O)c1ccccc1C2=O 16.4 µM
Cc1cc(S(=O)(=O)c2ccc(Cl)cc2)nc(S(=O)(=O)c2ccc(Cl)cc2)c1C#N 18.4 µM

— PubChem BioAssay AID720537 (National Center for Advancing Translational Sciences (NCATS), 2013)
